The whole screen tested about 360,000 compounds, of which about 25,000 (6.9%) were called active. The shares of active, inactive and inconclusive entries below differ from those in the screen. The call rests on the fitted dose curve; in most records, active means well fitted inhibition curve with a large enough effect; inconclusive means small, poorly fitted or top-dose-only effect; inactive means flat fitted curve, though single readings scatter. Where the call is inconclusive, the potency comes from a doubtful curve fit.
The compounds below were run against Luciferin 4-monooxygenase (Photinus pyralis) (UniProt P08659) (assay: qHTS profiling assay for firefly luciferase inhibitor/activator using purifed enzyme and Km concentrations of substrates (counterscreen for miR-21 project)). Details: purified FLuc, luminescence inhibition; series mostly up to 57.5 µM; activity change, negative = inhibition: at the top concentration.
Outline: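 Biochemical qHTS of compounds, final roughly 60 µM downward over six points, against 10 nM purified firefly luciferase using Km concentrations of substrates (10 uM D-luciferin, 10 uM ATP) in Tris acetate pH 7.5 buffer; luminescence output.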
Further: nearly all actives have a fitted effect of over 55% in size.
Potency means the concentration at half of the fitted maximal effect; tags describe the fitted curve by direction and shape.
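Wherever activity change, negative = inhibition is given: plate controls were vehicle for no effect and reference inhibitor for full effect.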

Chain of UniProt P08659 (P08659 whole entry, looked up): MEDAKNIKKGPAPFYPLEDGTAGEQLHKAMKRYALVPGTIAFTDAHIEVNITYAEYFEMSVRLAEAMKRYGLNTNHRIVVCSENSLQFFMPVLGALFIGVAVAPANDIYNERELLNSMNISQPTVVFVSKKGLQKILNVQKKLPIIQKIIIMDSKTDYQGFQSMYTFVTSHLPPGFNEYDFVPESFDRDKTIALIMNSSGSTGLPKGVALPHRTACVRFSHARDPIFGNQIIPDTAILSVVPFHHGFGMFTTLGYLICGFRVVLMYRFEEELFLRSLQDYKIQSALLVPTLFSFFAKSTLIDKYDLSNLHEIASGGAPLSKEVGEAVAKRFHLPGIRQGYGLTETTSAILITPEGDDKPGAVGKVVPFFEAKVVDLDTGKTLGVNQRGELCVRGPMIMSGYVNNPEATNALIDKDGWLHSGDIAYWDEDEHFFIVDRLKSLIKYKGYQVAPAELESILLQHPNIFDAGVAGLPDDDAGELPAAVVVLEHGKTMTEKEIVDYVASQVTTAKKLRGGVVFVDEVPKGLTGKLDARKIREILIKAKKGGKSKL

Row | Structure (SMILES) | Potency | activity change, negative = inhibition
1 | Cc1cc(-c2ccc([N+](=O)[O-])cc2)nc2ccccc12 | inconclusive: 30.1 µM [inhibitor, single point] | –
2 | O=C(NCc1ccccc1)c1cc2ccc3cccnc3c2[nH]1 | inconclusive: 4.26 µM [inhibitor, full curve] | –
3 | CC(C)Cc1cc(C(=O)Nc2ccc3c(c2)OCO3)no1 | active: 5.36 µM | –
4 | O=C(Nc1ccccc1)Nc1ccc2nnsc2c1 | active: 7.57 µM | –
5 | CCc1ccc(-n2c(=O)c3c4c(sc3n(CC(=O)c3ccc(Br)cc3)c2=O)CCC4)cc1 | – | inactive: -10.8%
6 | O=C(c1ccc(-c2ccccc2Cl)o1)N1CCC1 | active: 16.9 µM | –
7 | Cc1ccc(S(=O)(=O)Nc2ccc3nc(-c4ccc(F)cc4)oc3c2)cc1 | inconclusive: 37.9 µM [inhibitor, partial curve, poor fit] | –
8 | Cc1nc(-c2cccc(NC(=O)c3cccs3)c2)cs1 | active: 23.9 µM | –
9 | CSC1=NCCN1C(=O)Cc1ccc(-c2ccccc2)cc1 | inconclusive: 26.9 µM [inhibitor, single point] | –
10 | Cc1ccc(CNC(=O)c2c(C)oc3ncnc(N4CCOCC4)c23)cc1 | – | inactive: -5.96%
11 | CC(C)(C)c1cc(-c2nc(N)nc(N)n2)cc(C(C)(C)C)c1 | – | inactive: -15.8%
12 | Cc1ccc(-n2nc(C)c(C(=O)O)c2-n2cccc2)cc1 | inconclusive: 37.9 µM [inhibitor, partial curve, poor fit] | –
13 | Cc1ccc(NS(=O)(=O)c2ccc(C(=O)N3CC(C)OC(C)C3)cc2)cc1 (stereo unspecified) | – | inactive: 4.21%
14 | NC(=S)Nc1cccc(-c2n[nH]c(=S)o2)c1 | – | inactive: -19.1%
15 | Cc1ccc(C(=O)NC(=S)Nc2ccc(NC(=O)c3cccs3)cc2)cc1[N+](=O)[O-] | – | inactive: 8.75%
16 | N#Cc1c(-n2ncnc2-c2ccc(F)cc2)sc2c1CCCCC2 | active: 0.426 µM | –
17 | Cc1cc(OCc2nc(-c3cccs3)no2)cc(C)c1Cl | inconclusive: 23.9 µM [inhibitor, single point] | –
18 | O=C(/C=C/c1ccccc1)c1ccccc1O | active: 3.38 µM | –
19 | COc1cccc(Nc2ncnc3ccccc23)c1 | active: 10.7 µM | –
20 | Nc1ccc(C(=O)N2N=C(c3ccc(F)cc3)CC2(O)C(F)(F)F)cc1 (stereo unspecified) | inconclusive: 30.1 µM [inhibitor, partial curve, poor fit] | –
21 | COC1=C(Nc2ccc(OC)cc2)C(=O)c2ccccc2C1=O | active: 19 µM | –
22 | O=C(CSCc1cnn(-c2ccccc2)c1-n1cccc1)NCc1cccc(Cl)c1 | – | inactive: -0.362%
23 | CCSc1nc(C)c(CCOc2cccc(C)c2)c(=O)[nH]1 | inconclusive: 15.1 µM [inhibitor, partial curve, poor fit] | –
24 | CCn1c(-c2cccs2)nc2ccccc21 | inconclusive: 19 µM [inhibitor, partial curve, poor fit] | –
25 | O=C(CSc1nnc(CNC(=O)c2c(F)cccc2F)o1)NCc1ccccc1Cl | – | inactive: 0.0447%
26 | COc1ccccc1Nc1ncc(C(C)=O)c(C)n1 | inconclusive: 19 µM [inhibitor, partial curve] | –

Row | Structure (SMILES) | Potency | activity change, negative = inhibition
27 | Cc1n[nH]c(=O)n1-c1ccc(Oc2ccccc2)cc1 | inconclusive: 23.9 µM [inhibitor, single point] | –
28 | c1ccc(-c2nc(NCCCn3ccnc3)c3oc4ccccc4c3n2)cc1 | inconclusive: 21.3 µM [inhibitor, single point] | –
29 | O=C1c2cccc(OCC(=O)N3CCCc4ccccc43)c2CCN1Cc1cccnc1 | – | inactive: -4.66%
30 | Cc1ccc(N2C(=O)C3C4C=CC(C4)C3C2=O)cc1 (stereo unspecified) | inconclusive: 30.1 µM [inhibitor, partial curve, poor fit] | –
31 | O=C(Nc1ccccc1)Nc1nccs1 | active: 23.9 µM | –
32 | Nc1nc(SCC(=O)NC2CCCC2)[nH]c(=O)c1-c1ccccc1 | – | inactive: 3.55%
33 | O=C(COC(=O)/C=C/c1ccc(Cl)cc1)NC1CCCCCC1 | – | inactive: 0.177%
34 | O=C1C(=O)N(CC2CCCO2)C(c2ccccc2[N+](=O)[O-])/C1=C(/O)c1ccccc1 (stereo unspecified) | inconclusive: 16.9 µM [inhibitor, partial curve, poor fit] | –
35 | CCCn1c(NCc2cccc(OC)c2OC)nc2ccccc21 | inconclusive: 26.9 µM [inhibitor, partial curve, poor fit] | –
36 | COc1ccc2[nH]c(C(=O)NCCc3ccccc3)cc2c1 | inconclusive: 8.49 µM [inhibitor, partial curve] | –
37 | Nc1cc(-c2ccc(Br)cc2)[nH]n1 | inconclusive: 26.9 µM [inhibitor, partial curve] | –
38 | CCCc1cc(=O)oc2cc(C)c3c(-c4ccccc4)coc3c12 | inconclusive: 33.8 µM [inhibitor, partial curve, poor fit] | –
39 | COc1cccc(-c2nnc3sc(-c4ccccc4)nn23)c1 | inconclusive: 26.9 µM [inhibitor, partial curve] | –
40 | CN1CCN(c2ccc(S(=O)(=O)N3CCOCC3)cc2NC(=O)Cc2ccccc2F)CC1 | – | inactive: 1.2%
41 | Cc1ccc(NC(=O)CC2Nc3ccccc3NC2=O)cc1C (stereo unspecified) | – | inactive: -12.3%
42 | O=C(O)CSCc1cn2cc(Cl)ccc2n1 | – | inactive: -17.5%
43 | O=S(=O)(Cc1noc(-c2ccccc2Cl)n1)c1ccccn1 | active: 10.7 µM | –
44 | Cc1ccc(S(=O)(=O)C(CNC(=O)C(=O)NCCc2ccccc2)c2cccs2)cc1 (stereo unspecified) | – | inactive: -9%
45 | S=C(Nc1ccc(Nc2ccccc2)cc1)Nc1ccccn1 | inconclusive: 30.1 µM [inhibitor, single point] | –
46 | O=c1c2ccccc2nc2c3ccccc3cnn12 | inconclusive: 23.9 µM [inhibitor, single point] | –
47 | CCN=c1scc(C)n1/N=C/c1cc(Br)c(O)c(OC)c1 | inconclusive: 23.9 µM [inhibitor, partial curve] | –
48 | O=C(CSc1nc2ccccc2s1)Nc1ncccn1 | inconclusive: 23.9 µM [inhibitor, partial curve] | –
49 | COC(=O)CSc1nn(-c2ccc(F)cc2)c(=S)s1 | inconclusive: 30.1 µM [inhibitor, partial curve, poor fit] | –
50 | O=C(CCCCCNc1nc(=S)[nH]c2ccccc12)NCCc1c[nH]c2ccccc12 | inconclusive: 21.3 µM [inhibitor, partial curve, poor fit] | –
51 | Cc1ccccc1-c1noc(-c2ccc(NCc3ccco3)c([N+](=O)[O-])c2)n1 | inconclusive: 9.53 µM [inhibitor, partial curve] | –
52 | COc1ccc2c(c1)CCc1c(C(=O)Nc3c(C)nn(Cc4ccccc4)c3C)noc1-2 | inconclusive: 23.9 µM [inhibitor, partial curve, poor fit] | –

Row | Structure (SMILES) | Potency | activity change, negative = inhibition
53 | O=C(CCc1ccccc1)NNC(=S)NC(=O)c1ccc(Cl)cc1 | – | inactive: -0.483%
54 | CCCCc1ccc(NC(=S)N2CCC(O)CC2)cc1 | inconclusive: 33.8 µM [inhibitor, single point] | –
55 | COc1ccc2oc(C(=O)Nc3nc(C)cs3)c(C)c2c1 | active: 0.601 µM | –
56 | COc1cccc(-c2ccc(SCC(=O)N3CCOCC3)nn2)c1 | inconclusive: 23.9 µM [inhibitor, partial curve, poor fit] | –
57 | c1ccc(C2Oc3ccccc3C3CC(c4cccs4)=NN32)cc1 (stereo unspecified) | inconclusive: 23.9 µM [inhibitor, single point] | –
58 | CCn1c(COc2ccc(C)cc2)nnc1SCC(=O)Nc1ccc2c(c1)OCCO2 | inconclusive: 26.9 µM [inhibitor, partial curve, poor fit] | –
59 | O=C(Oc1ccc(/C=N/Nc2ccccc2)cc1)c1ccccc1 | inconclusive: 16.9 µM [inhibitor, partial curve] | –
60 | CN(C)c1ccc(NC(=O)CSc2n[nH]c(-c3ccco3)n2)cc1 | inconclusive: 37.9 µM [inhibitor, single point] | –
61 | Cc1cc(Br)c2c(c1)/C(=C/C(=O)c1cccs1)C(=O)N2 | – | inactive: -18.2%
62 | Cc1ccccc1NC(=O)/C=C/c1cccs1 | inconclusive: 23.9 µM [inhibitor, partial curve] | –
63 | COc1ccc(C2N(C(=O)C(F)(F)F)C(C)CN2S(=O)(=O)c2ccc(C)cc2)cc1 (stereo unspecified) | – | inactive: 3.85%
64 | CC(C)c1nc2cc(C(=O)N(C)Cc3ccc(F)cc3)ccc2o1 | inconclusive: 21.3 µM [inhibitor, single point] | –
65 | CC(C)c1ccc(OCC(=O)NCc2ccco2)cc1 | inconclusive: 33.8 µM [inhibitor, single point] | –
66 | COCCNC(=S)NNc1cccc(C(=O)O)c1 | inconclusive: 37.9 µM [inhibitor, partial curve, poor fit] | –
67 | Cc1ccc(N=C2NC(=O)C(CO)(CO)S2)cc1 | – | inactive: -1.79%
68 | COc1ccc(C(=O)c2c(-c3cccc(C)c3)oc3ccc(N4CCOCC4)cc23)cn1 | inconclusive: 26.9 µM [inhibitor, partial curve, poor fit] | –
69 | O=C(Nc1ccc2c(c1)OCCO2)c1ccc(Br)cc1 | active: 1.07 µM | –
70 | CSc1ccc(-c2nc3cccc(C)n3c2Nc2ccc(Cl)cc2)cc1 | – | inactive: 2.16%
71 | COC(=O)N1C(=O)[C@](c2ccsc2)(C(C)C)N1C(=O)OC | – | inactive: 1.95%
72 | Cc1ccc(-n2ncc3c(NCc4ccccn4)ncnc32)c(C)c1 | inconclusive: 26.9 µM [inhibitor, single point] | –
73 | O=C(c1ccccc1)c1cc(F)c(N2CCOCC2)cc1Cl | inconclusive: 21.3 µM [inhibitor, partial curve, poor fit] | –
74 | Brc1ccc2nc(-c3cccs3)c(NCC3CCCO3)n2c1 (stereo unspecified) | active: 12 µM | –
75 | NNC(=O)COc1ccc2oc3c(c2c1)CCCC3 | inconclusive: 26.9 µM [inhibitor, partial curve, poor fit] | –
76 | CC(C)OC(=O)C(C)Oc1ccc(C(=O)NCCc2ccccc2)cc1 (stereo unspecified) | inconclusive: 19 µM [inhibitor, partial curve] | –
